Laboratory results reported in PubChem BioAssay AID463173 (ICCB-Longwood Screening Facility, Harvard Medical School, 2010).
Among all 52,000 compounds or so, about 1,700 (3.3%) were called active. Cut-off read from the data, not from the text of the source: active = survival mostly below about 52% (no sharp cut-off); inactive = mostly above about 56%. This is one part of the list.

These molecules were tested on Wild type (assay: S. aureus survival, RN4220 and DeltatarO strains – OD600, teichoic acid synthesis inhibitors, primary screen (AID 463173)). Conditions: S. aureus RN4220 wild type/DeltatarO growth, OD600, 18 h, hits give low values, screened at 18.75 µg/mL (by protocol).
For `COc1ccccc1NC(=O)c1ccc2c(Cl)c3c(nc2c1)CCCC3`, the survival was inactive: 19%. For `CCOC(=O)c1c(C)[nH]c(C)c1S(=O)(=O)N1CCC(C(=O)N2CCN(c3ccc(Cl)cc3)CC2)CC1`, the survival was inactive: 68%. In the case of `CCOc1ccc(NC(=O)N2CC=C(c3c[nH]c4ccccc34)CC2)cc1`, the survival is reported as inactive: 75%. `CC1=C(c2ccc(C)c(C)c2)S(=O)(=O)N=C1N1CCC(C(=O)NCCc2ccc(Cl)cc2)CC1` was tested, and the survival was inactive: 132%. `O=C(c1cc(=O)c2cc(Cl)ccc2o1)N(Cc1ccccc1)C1CCS(=O)(=O)C1` (stereo not drawn) was tested, and the survival was inactive: 86%. In the case of `COc1cc(Cl)c(C)cc1NC(=O)c1cc2ccc3cccnc3c2[nH]1`, the survival is reported as inactive: 73%. For `CC(=O)OCc1cnc(C)c2oc(=O)c(C(=O)Nc3cccc(F)c3)cc12`, the survival was inactive: 120%. With `Cc1ccc(-n2ncc3c(NCCCc4ccccc4)ncnc32)cc1` the survival was inactive: 69%. `Cc1nc(N2CCCC2)c2c(C(=O)Nc3cccc(Cl)c3C)c(C)oc2n1` was tested, and the survival was inactive: 45%. For `COc1cc2[nH]c(=O)n(Cc3ccc(C(=O)NCc4ccccc4)cc3)c(=O)c2cc1OC`, the survival was inactive: 71%. For `Cc1nc(SCC(=O)N2c3ccccc3CCc3ccccc32)n[nH]1`, the survival was inactive: 98%. For `COc1ccc(NC(=O)CSc2nc3nc(C)c(Cc4ccc(C)cc4)c(C)n3n2)cc1OC`, the survival was inactive: 93%. For `COc1ccc(Cl)cc1-n1nnc(-c2nc(-c3ccc4c(c3)OCO4)no2)c1C`, the survival was inactive: 71%. With `CCCNC(=O)C1CCC(Cn2c(=O)c3sccc3n(Cc3ccccc3C)c2=O)CC1` (stereo not drawn) the survival was inactive: 70%. With `COc1ccccc1NC(=O)C(=O)c1cc(C)n(-c2ccccc2F)c1C` the survival was inactive: 101%. In the case of `Cc1cccc(C)c1NC(=O)c1csc2c1CCCC2`, the survival is reported as inactive: 100%. For `Cc1ccc(NC(=O)Nc2nnc(SCC(=O)Nc3ccc(F)cc3F)s2)cc1`, the survival was inactive: 74%. For `CC(C)(C)NC(=O)CSc1nnc(-c2cccs2)o1`, the survival was inactive: 106%. With `CCc1ccc(NC(=O)c2cc(S(=O)(=O)N3CCCCCC3)ccc2F)cc1` the survival was inactive: 124%. With `CCCCN1CC(c2nc3ccccc3n2CCCCOc2ccc(C)cc2C)CC1=O` (stereo not drawn) the survival was active: -5%. In the case of `Cn1ccc(-c2ccccc2)n1`, the survival is reported as inactive: 110%. With `Cc1ccc(-n2ncc3c(NCCCN4CCOCC4)ncnc32)cc1Cl` the survival was inactive: 83%. With `O=C(NCCCc1nc2ccccc2n1Cc1cccc(Cl)c1)c1ccco1` the survival was inactive: 84%. With `COc1cc(Cl)c(C)cc1NC(=O)c1cnn(-c2ccc(C)cc2)c1-n1cccc1` the survival was inactive: 65%. For `c1coc(-c2nc3ccccn3c2Nc2ccc3c(c2)OCCO3)c1`, the survival was inactive: 70%. For `CCOc1ccc(NC(=O)CCS(=O)(=O)c2ccc3nc(C)sc3c2)cc1`, the survival was inactive: 98%. For `Cc1ccc(C)n1-c1ccc(NC(=O)c2ccccc2)cc1`, the survival was inactive: 114%. For `COc1ccc(-n2c(=O)c3sc4ccccc4c3n(CC(=O)N3CCCC3)c2=O)cc1`, the survival was inactive: 92%. For `Cc1nc(-c2ccc(C)c(N3CCN(C(=O)Nc4ccc(Br)cc4)CC3)c2)no1`, the survival was active: -1%. For `CCn1cc(S(=O)(=O)c2cccc(C)c2)c(=O)c2cc(F)c(N3CCCCC3C)cc21` (stereo not drawn), the survival was inactive: 70%. For `Cc1ccc(Cn2c(SCc3ccc(C(=O)NCCc4ccccc4)cc3)nc3ccncc32)cc1`, the survival was inactive: 78%. `COc1ccc(-n2c(SCC(=O)N3CCCc4ccccc43)nc3c([nH]c4ccccc43)c2=O)cc1` was tested, and the survival was inactive: 78%. `COc1ccc(-c2cn3c(n2)sc2cc(C(=O)Nc4ccccc4F)ccc23)cc1` was tested, and the survival was inactive: 70%. In the case of `CS(=O)(=O)c1nc(-c2ccc(Br)cc2)n[nH]1`, the survival is reported as inactive: 116%. With `CN(C)CCNC(=O)c1ccc2nc(CCc3ccccc3)oc2c1` the survival was inactive: 73%. In the case of `CCc1ccc2occ(CC(=O)Nc3c(C(=O)Nc4ccc(Cl)cc4)oc4ccccc34)c2c1`, the survival is reported as inactive: 83%. With `Cc1cc(-c2ccc(C)c(S(=O)(=O)N(Cc3cccs3)C(C)C)c2)on1` the survival was inactive: 65%. `COc1ccc(NC(=O)/C(C#N)=C/c2ccc(C)o2)cc1` was tested, and the survival was inactive: 73%. For `CC(C)(C)OC(=O)N1CCC(c2c(C(=O)Nc3ccc4c(c3)OCO4)cnn2-c2ccc(F)cc2F)CC1`, the survival was inactive: 82%. `Cc1ccc(CNC(=O)C(=O)NCC(c2cccs2)S(=O)(=O)c2cccs2)cc1` (stereo not drawn) was tested, and the survival was inactive: 68%. In the case of `CC1CCCN(c2ncnc3c2nc2n3CCCCC2)C1` (stereo not drawn), the survival is reported as inactive: 83%. With `CN(C)c1ccc(CNc2nc(-c3ccco3)nn2S(C)(=O)=O)cc1` the survival was inactive: 84%. `CCC1CCCCN1C(=O)c1sc2nc(C)cc(C)c2c1N` (stereo not drawn) was tested, and the survival was inactive: 109%. In the case of `CCOC(=O)c1ccc(NC(=O)c2cnc(N3CCCC3)nc2C)cc1`, the survival is reported as inactive: 71%. `CCSc1nc2c([nH]c3ccccc32)c(=O)n1-c1ccc(OC)cc1` was tested, and the survival was inactive: 64%. With `O=C(O)CCCC(=O)N1CCc2cc(S(=O)(=O)NCc3ccccc3)ccc21` the survival was inactive: 98%. In the case of `Cc1cccc(NC(=O)CCNS(=O)(=O)c2ccc3c(c2)CCCC(=O)N3)c1C`, the survival is reported as inactive: 80%. For `CCOC(=O)c1[nH]c2c(c1Cc1ccccc1)C(=O)CC(c1ccc(OC)cc1)C2` (stereo not drawn), the survival was inactive: 94%. For `Cc1ccccc1Cn1c(=O)n(CCCCC(=O)NCCc2ccccc2)c(=O)c2ccccc21`, the survival was inactive: 103%. With `CCc1ccc(NC(=O)CSC2=Nc3ccccc3C3=NC(CC(=O)NCc4ccc5c(c4)OCO5)C(=O)N23)cc1` (stereo not drawn) the survival was inactive: 153%. With `CCCC(=O)Nc1ccc(NC(=O)c2sc3ccccc3c2Cl)cc1` the survival was inactive: 128%. With `CCc1ccc2nc(N(Cc3cccnc3)C(=O)c3cccs3)sc2c1` the survival was inactive: 127%. With `CCn1c(SCC(=O)Nc2nc(C)cs2)nnc1C(C)Oc1ccccc1` (stereo not drawn) the survival was inactive: 82%. For `COCCn1c(SCC(=O)c2ccccc2)nc2cc(C(=O)NC3CCCC3)ccc2c1=O`, the survival was inactive: 76%. For `COc1ccc(NC(=O)CN(c2cccc(C)c2C)S(=O)(=O)c2ccccc2)cc1OC`, the survival was inactive: 72%. In the case of `CCOC(=O)CSC1=Nc2ccccc2C2=NC(CCC(=O)NCc3ccccc3)C(=O)N12` (stereo not drawn), the survival is reported as inactive: 73%. In the case of `CCc1ccc2[nH]c3nc(SCC(=O)OC(C)C)nnc3c2c1`, the survival is reported as inactive: 107%. `COc1ccc(C(=O)N2CCN(C(=O)COc3ccc(Br)cc3)CC2)cc1OC` was tested, and the survival was inactive: 80%.
